Experiment [1] deals with T1, CD80 (UniProt P33681 35-242, limits assumed).
T1 construct: also called B7-1
T1 sequence (looked up): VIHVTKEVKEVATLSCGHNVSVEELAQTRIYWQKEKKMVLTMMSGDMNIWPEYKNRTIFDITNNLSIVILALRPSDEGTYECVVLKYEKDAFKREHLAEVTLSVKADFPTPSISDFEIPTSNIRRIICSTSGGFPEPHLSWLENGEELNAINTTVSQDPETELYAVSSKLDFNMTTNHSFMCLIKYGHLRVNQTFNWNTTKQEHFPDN
In words: SPR BIAcore 3000, 25 C; CTLA4-Ig on chip, CD80 analyte.

For experiment [2], the target named is T2, CD86 (UniProt P42081 24-247, limits assumed).
T2 construct: also called B7-2
T2 sequence (looked up): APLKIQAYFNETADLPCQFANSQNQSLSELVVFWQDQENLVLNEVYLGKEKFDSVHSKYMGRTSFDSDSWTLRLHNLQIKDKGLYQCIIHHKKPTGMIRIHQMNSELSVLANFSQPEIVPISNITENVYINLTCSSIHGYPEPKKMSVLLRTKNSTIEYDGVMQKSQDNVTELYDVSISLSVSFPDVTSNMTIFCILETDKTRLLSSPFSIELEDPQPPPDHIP
Briefly: SPR BIAcore 3000, 25 C; CTLA4-Ig on chip, CD86 analyte. For orientation: Surface plasmon resonance follows binding to a sensor surface in real time, without labels.

The target in experiment [3] is T1, CD80. Briefly: SPR BIAcore 3000, 25 C; CTLA4-Ig on chip, CD80 analyte. The source holds these as a separate data set.
Experiment [4] deals with T2, CD86. Briefly: SPR BIAcore 3000, 25 C; CTLA4-Ig on chip, CD86 analyte. This is another data set of the same source.
Experiment [5] deals with T1, CD80. Briefly: SPR BIAcore 3000, 25 C; CTLA4-Ig on chip, CD80 analyte. This is another data set of the same source.
The target of experiment [6] is T2, CD86. In words: SPR BIAcore 3000, 25 C; CTLA4-Ig on chip, CD86 analyte. The source holds these as a separate data set.

Where two headings read alike, the source gives them in different places.

B1: CTLA4-Ig variant 71# (Fc fusion)
chain: MHVAQPAVVLASSRGIASFVCEYASPDKAKATEVRVTVLRQADSQVTEVCAATYMMGNELTFLDDSICTGTSSGNQVNLTIQGLRAMDTGLYICKVELMYPPPYYLGIGNGTQIYVIDPEPCPDSDQ[human IgG1 Fc with changes not given here]
Broadly, the Kd is a measure of binding affinity in units of concentration. Usually koff stands for the first-order rate constant of dissociation. A word on the kon: it is the second-order rate constant of association. Read a high kon as faster complex formation. Regarding B1, in the experiment with CD80 [1], binding was put at a Kd of 7.49 nM, the “Relative affinity (KD(abatacept)/KD(variant))” value (shortened to “Relative affinity”) was 2.82, the koff turned out to be 0.00108 s⁻¹ and the kon is 144000 M⁻¹ s⁻¹. Also, in the experiment with CD86 [2], the affinity, expressed as Kd, was 14.2 nM; the “Relative affinity” value amounted to 18.5; the koff was 0.00487 s⁻¹; the kon is 343000 M⁻¹ s⁻¹. Also, in the experiment with CD80 [3], binding was put at a Kd of 2.1 nM, the “Relative affinity” value stood at 5.1, the koff is 0.00067 s⁻¹ and the kon was 319000 M⁻¹ s⁻¹. Besides, in the experiment with CD86 [4], binding was characterised by a dissociation constant (Kd) of 8.9 nM, the “Relative affinity” value was 9.3, the koff was 0.00533 s⁻¹ and the kon was 599000 M⁻¹ s⁻¹.

B2: CTLA4-Ig variant 99# (Fc fusion)
chain: MHVAQPAVVLASSRGIASFVCEYASPDKATEVRVTVLRQADSQVTEVCAATYMMGNELTFLDDSICTFTSSGNQVNLTIQGLRAMDTGLYICKVELMYPPPYYLGIGNGTQIYVIDPEPCPDSDQ[human IgG1 Fc with changes not given here]
In the experiment with CD86 [4], B2 yielded a Kd of 11.2 nM.

B3: CTLA4-Ig variant 96# (Fc fusion)
chain: MHVAQPAVVLASSRGIASFVCEYASPDKKATEVRVTVLRQADSQVTEVCAATYMMGNELTFLDDSICTFTSSGNQVNLTIQGLRAMDTGLYICKVELMYPPPYYLGIGNGTQIYVIDPEPCPDSDQ[human IgG1 Fc with changes not given here]
Turning to B3, in the experiment with CD80 [3], the affinity, expressed as Kd, was 1.69 nM; the “Relative affinity” value is 6.33; the off-rate (koff) came to 0.000427 s⁻¹; the kon was determined as 253000 M⁻¹ s⁻¹. In the experiment with CD80 [5], the Kd was found to be 0.224 nM, the “Relative affinity” value is 13.3, the koff was determined as 9.02e-05 s⁻¹ and the kon came out at 403000 M⁻¹ s⁻¹. In addition, in the experiment with CD86 [6], the Kd came to 4.55 nM, the “Relative affinity” value came to 1.54, the koff worked out at 0.00302 s⁻¹ and the kon came out at 663000 M⁻¹ s⁻¹. Further, in the experiment with CD86 [4], the Kd worked out at 15.2 nM, the “Relative affinity” value came to 5.45, the koff was found to be 0.0539 s⁻¹ and the kon came out at 3.55e+06 M⁻¹ s⁻¹.

B4: CTLA4-Ig variant 127# (Fc fusion)
chain: MHVAQPAVVLASSRGIASFVCEYASPDKKATEVRVTVLRQADSQVTEVCAATYMMGNELTFLDDSICTFTSSGNQVNLTIQGLRAMDTGLYICKVELMYPPPYYLGIGNGTQIYVIDPEPCPHSDQ[human IgG1 Fc with changes not given here]
In the case of B4, in the experiment with CD80 [5], the Kd worked out at 0.165 nM, the “Relative affinity” value amounted to 18.1, the dissociation rate constant (koff) came out at 6.78e-05 s⁻¹ and the kon stood at 411000 M⁻¹ s⁻¹. In addition, in the experiment with CD86 [6], the Kd came out at 4.25 nM, the “Relative affinity” value is 1.64, the koff was 0.00296 s⁻¹ and the kon came to 695000 M⁻¹ s⁻¹.

B5: CTLA4-Ig variant 84# (Fc fusion)
chain: MHVAQPAVVLASSRGIASFVCEYASPDKKATEVRVTVLRQADSQVTEVCAATYMMGNELTFLDDSICTGTSSGNQVNLTIQGLRAMDTGLYICKVELMYPPPYYLGIGNGTQIYVIDPEPCPDSDQ[human IgG1 Fc with changes not given here]
With B5, in the experiment with CD80 [1], the Kd is 6.04 nM, the “Relative affinity” value was 3.49, the koff turned out to be 0.00235 s⁻¹ and the kon was determined as 389000 M⁻¹ s⁻¹. Also, in the experiment with CD86 [2], binding was put at a Kd of 57.8 nM, the “Relative affinity” value came out at 4.55, the koff was determined as 0.138 s⁻¹ and the kon stood at 2.38e+06 M⁻¹ s⁻¹.

B6: CTLA4-Ig variant 98# (Fc fusion)
chain: MHVAQPAVVLASSRGIASFVCEYASPDKKATEVRVTVLRQADSQVTEVCAATYMMGNELTFLDDSICTETSSGNQVNLTIQGLRAMDTGLYICKVELMYPPPYYLGIGNGTQIYVIDPEPCPDSDQ[human IgG1 Fc with changes not given here]
Turning to B6, in the experiment with CD80 [3], binding was characterised by a dissociation constant (Kd) of 17.3 nM, the “Relative affinity” value amounted to 0.62, the koff stood at 0.00231 s⁻¹ and the kon was 134000 M⁻¹ s⁻¹. In the experiment with CD86 [4], the Kd was found to be 49.4 nM, the “Relative affinity” value amounted to 1.68, the koff turned out to be 0.11 s⁻¹ and the on-rate (kon) turned out to be 2.22e+06 M⁻¹ s⁻¹.

B7: CTLA4-Ig variant 134# (Fc fusion)
chain: MHVAQPAVVLASSRGIASFVCEYASPDKKATEVRVTVLRQADSQVTEVCAATYMMGNELTFLDDSICTFTSSGNQVNLTIQGLRAMDTGLYICMVELMYPPPYYLGIGNGTQIYVIDPEPCPDSDQ[human IgG1 Fc with changes not given here]
Turning to B7, in the experiment with CD80 [5], the Kd amounted to 0.093 nM, the “Relative affinity” value was found to be 32.1, the koff is 2.99e-05 s⁻¹ and the kon amounted to 322000 M⁻¹ s⁻¹. In the experiment with CD86 [6], binding was put at a Kd of 4.35 nM, the “Relative affinity” value is 1.61, the koff was 0.00279 s⁻¹ and the kon stood at 642000 M⁻¹ s⁻¹.

B8: CTLA4-Ig variant 124# (Fc fusion)
chain: MHVAQPAVVLASSRGIASFVCEYASPDKKATEVRVTVLRQADSQVTEVCAATYMMGNELTFLDDSICTFTSSGNQVNLTIQGLRAMDTGLYICKVELMYPPPYYLGIGNGTQIYVIDSEPCPDSDQ[human IgG1 Fc with changes not given here]
B8: in the experiment with CD80 [5], binding was put at a Kd of 0.21 nM, the “Relative affinity” value amounted to 14.2, the koff was determined as 7.43e-05 s⁻¹ and the kon stood at 354000 M⁻¹ s⁻¹. For the same molecule, in the experiment with CD86 [6], the Kd was found to be 4.95 nM, the “Relative affinity” value is 1.41, the koff is 0.00324 s⁻¹ and the kon was found to be 654000 M⁻¹ s⁻¹.

B9: CTLA4-Ig variant 132# (Fc fusion)
chain: MHVAQPAVVLASSRGIASFVCEYESPHKANEIRVTVLRQANSQVTEVCAMTYMKGDELTFLDDPSCTGTFSGNQVNLTIQGLRAADTGLYICKVELMYPPPYYLGFGNGTQIYVIDPEPCPDSDQ[human IgG1 Fc with changes not given here]
For B9, in the experiment with CD80 [5], the dissociation constant (Kd) stood at 0.425 nM, the “Relative affinity” value came out at 7.03, the koff was found to be 0.000121 s⁻¹ and the kon was 285000 M⁻¹ s⁻¹. In addition, in the experiment with CD86 [6], the Kd turned out to be 0.27 nM, the “Relative affinity” value is 25.9, the koff amounted to 0.000117 s⁻¹ and the kon came out at 434000 M⁻¹ s⁻¹.
